Measured values reported in the supplement of paper PMC10338343.
± gives the standard deviation. The list shows a part of the results, in another mix than the full data.

test system: MIWI (PIWIL1) piRISC loaded with L1MC piRNA (30 nt); test: pre-steady-state target cleavage rate (min^-1); MIWI and MILI are mouse PIWI proteins and EfPiwi is from a freshwater sponge; tags in brackets are library labels; higher = faster piRNA-guided slicing of the target; settings: guide: L1MC piRNA 5'p-UAACUAAAUACUAUGCAAGCUGUAGGUCCU; auxiliary factor: 500 nM mouse GTSF1
Experimental: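 Cleave-'n-Seq: a library of target RNAs (target site embedded in constant flanks, ACAGCATTCCGCGTTAGTGATATCCG... 5' flank; DNA-blocked outside the site) at 0.1 nM was incubated with 1 nM active mouse MILI or MIWI piRISC (synthetic 5'-monophosphorylated piRNA guide) with or without 500 nM mouse GTSF1 at 33 °C for 1 min to 16 h. Uncleaved targets were sequenced and normalised to non-target controls, and the pooled three trials were fitted to a burst-and-steady-state model to give the pre-steady-state cleavage rate (min^-1; k3 is constrained to at most 1e-4). Sequence is the target site only; target names encode pairing extent (gX:gY) and contiguous / 1-mismatch / 2-mismatch / bulge geometry. Fits with R² ≤ 0 are excluded.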

Row | Sequence | pre-steady-state target cleavage rate
1 | UCCUGGAUGAGCUUCAUAGUAUUUAGUUA | 0.443 ± 0.05
2 | UGGACCUACAGCUUGCAUUCUAUUUACAAA | 0.0133 ± 0.006
3 | AGGACCUACAGCUUGCAUAGUAUUUAAGUUA | 0.832 ± 0.062
4 | UCCUGGAUCCGCUUGCAUAGUAUUUAGUUA | 0.927 ± 0.053
5 | UGGAGCUACAGCUUGCAUAGUAUUUUGUUA | 0.992 ± 0.05
6 | UCCACCUACAGCUUGCACAGUAUUUAGUUA | 0.905 ± 0.026
7 | UCCUGGAACAGCUUGGAUAGUAUUUAGUUA | 1.18 ± 0.043
8 | UCCUGGAUGAGCUAGCAUAGUAAUUAGUUA | 0.0848 ± 0.0088
9 | UCCUGGAUCAGCUUGCAUACUUUUUAGUUA | 0.014 ± 0.0033
10 | UCCUGGAUGAGAUUGCAUAGUAUUUAGUUA | 0.117 ± 0.011
11 | UCGACCUACACCUUGCAUAGUAUUUAGAAA | 0.68 ± 0.078
12 | UGCACCUACUGCUUGCAUAGUAUUUAGUUA | 1.16 ± 0.097
13 | UCCACCUACAGCUUCCAAAGUAUUUAGUUA | 0.298 ± 0.036
14 | AGGACCUAGUCCUUGCAUAGUAUUUUCAAA | 0.178 ± 0.03
15 | UGGUCCUACAGCUUGCAUAGUAUAUAGUUA | 0.647 ± 0.044
16 | UCCUCCUACAGCUUGGAAAGUAUUUAGUUA | 0.981 ± 0.036
17 | UCCUGCUACAGCUUGCUUUGUAUUUAGUUA | 0.242 ± 0.022
18 | UGGACGUACAGCUUGCAUAGUAUUUAGAUA | 0.38 ± 0.032
19 | UGGAGCUACAGCUUGCAUAGUAUUUAGAAA | 0.369 ± 0.032
20 | UCGACCUACAGCUUGCAUAGUAUAUUCAAA | 0.466 ± 0.065
21 | AGGACCGUACAGCUUGCAUAGUAUUUAGUUA | 1.16 ± 0.061
22 | AGGACCUACAGCUUGCAUUGUAUAUAGUUA | 0.395 ± 0.031

same assay, conditions: guide: L1MC piRNA 5'p-UAACUAAAUACUAUGCAAGCUGUAGGUCCU; auxiliary factor: none (no GTSF1)

Row | Sequence | pre-steady-state target cleavage rate
23 | UCCUGGAUGAGCUUCAUAGUAUUUAGUUA | 0.00285 ± 0.0024
24 | AGGACCUACAGCUUGCAUAGUAUUUAAGUUA | 0.0696 ± 0.013
25 | UCCUGGAUCCGCUUGCAUAGUAUUUAGUUA | 0.031 ± 0.0075
26 | UGGAGCUACAGCUUGCAUAGUAUUUUGUUA | 0.0525 ± 0.0077
27 | UCCACCUACAGCUUGCACAGUAUUUAGUUA | 0.043 ± 0.0077
28 | UCCUGGAACAGCUUGGAUAGUAUUUAGUUA | 0.0808 ± 0.015
29 | UCCUGGAUGAGCUAGCAUAGUAAUUAGUUA | 0.00519 ± 0.0024
30 | UCCUGGAUCAGCUUGCAUACUUUUUAGUUA | 0.00335 ± 0.0016
31 | UCCUGGAUGAGAUUGCAUAGUAUUUAGUUA | 0.00369 ± 0.0027
32 | UCGACCUACACCUUGCAUAGUAUUUAGAAA | 0.00902 ± 0.0024
33 | UGCACCUACUGCUUGCAUAGUAUUUAGUUA | 0.0725 ± 0.014
34 | UGGUCCUACAGCUUGCAUAGUAUAUAGUUA | 0.0318 ± 0.005
35 | UCCUCCUACAGCUUGGAAAGUAUUUAGUUA | 0.00576 ± 0.002
36 | UCCUGCUACAGCUUGCUUUGUAUUUAGUUA | 0.00838 ± 0.0019
37 | UGGACGUACAGCUUGCAUAGUAUUUAGAUA | 0.053 ± 0.011
38 | UGGAGCUACAGCUUGCAUAGUAUUUAGAAA | 0.0159 ± 0.0038
39 | AGGACCGUACAGCUUGCAUAGUAUUUAGUUA | 0.0943 ± 0.019
40 | AGGACCUACAGCUUGCAUUGUAUAUAGUUA | 0.0219 ± 0.0046
